PubChem BioAssay AID463173 (ICCB-Longwood Screening Facility, Harvard Medical School, 2010)
About 1,700 (3.3%) of roughly 52,000 compounds were called active. Rule as the data show it: active = survival mostly below about 52% (no sharp cut-off); inactive = mostly above about 56%. This is one part of the list.

The compounds below were run on Wild type (assay: S. aureus survival, RN4220 and DeltatarO strains – OD600, teichoic acid synthesis inhibitors, primary screen (AID 463173)). Details: S. aureus RN4220 wild type/DeltatarO growth, OD600, 18 h, hits give low values, screened at 18.75 µg/mL (by protocol).

SMILES | survival
Cc1cc(Cl)ccc1OCc1nc(-c2ccc(-n3cccc3)cc2)no1 | inactive: 145%
O=C(O)CSc1c[nH]c2ccccc12 | inactive: 113%
CCCNC(=O)CCc1nnc2ccc(N3CCN(c4cccc(OC)c4)CC3)nn12 | inactive: 101%
CCCCN(C)CCNC(=O)c1c2c(nc3ccccc13)C(=O)N(C1CCCCC1)C2 | inactive: 75%
CCCCOC(=O)c1ccc(NC(=O)c2cc3c(=O)n4cccc(C)c4nc3s2)cc1 | inactive: 71%
Cc1c(C(=O)NCC(c2ccc(Cl)cc2)N2CCOCC2)oc2ccccc12 (stereo not given) | inactive: 71%
CCOc1ccc(N2CC(c3nc4ccccc4n3CCCOc3ccccc3)CC2=O)cc1 (stereo not given) | inactive: 66%
CC(C)(C)OC(=O)N1CCC(c2c(C(=O)NCCN3CCc4ccccc4C3)cnn2-c2ccc(F)cc2F)CC1 | inactive: 81%
Cc1ccc(CN2CCC(CNC(=O)Nc3ccc(Cl)cc3)C2)cc1 (stereo not given) | inactive: 53%
Cc1ccc(NC(=O)CCn2c(=O)c3cccn3c3ccccc32)cc1C | inactive: 73%
Cc1ccc(-n2c(=O)c3cccnc3n2CC(=O)Nc2ccc(Br)cc2)cc1C | inactive: 57%
CCC(=O)N1CCc2cc(Br)cc(S(=O)(=O)CCC(=O)NCCc3cccc(C)c3)c21 | inactive: 45%
CC(Oc1ccc(F)cc1)C(=O)N1CCC(c2nc3ccccc3s2)CC1 (stereo not given) | inactive: 80%
C=CCn1c(NC)nc2c1c(=O)[nH]c(=O)n2C | inactive: 101%
Cc1cc(C)cc(NC(=O)C(Cc2ccccc2)NS(=O)(=O)c2ccc3c(c2)c(=O)n(C)c(=O)n3C)c1 (stereo not given) | inactive: 87%
Cn1ncc2c(N3CCN(c4cccc(Cl)c4)CC3)ncnc21 | inactive: 73%
N#Cc1c(NC(=O)COC(=O)c2cccs2)sc2c1CCC2 | inactive: 110%
CCOC(=O)N1CCc2c(sc(NCc3sccc3C)c2C(=O)Nc2ccc(OC)cc2OC)C1 | inactive: 71%
CCOC(=O)c1cc2c(ccn2-c2ccc(F)cc2)n1CC(=O)N1C(C)CCCC1C (stereo not given) | inactive: 134%
COc1ccc(C)cc1NC(=O)CCS(=O)(=O)c1cc2c3c(c1)CCN3C(=O)CC2 | inactive: 77%
COc1ccccc1N1CCN(C(=O)c2nc(SC)ncc2Cl)CC1 | inactive: 89%
CCOc1ccc(Oc2nc(NCC(C)C)nc(N3CCOCC3)n2)nn1 | inactive: 74%
CC(C)(C)C(=O)Cn1c(=O)n(-c2ccc(Cl)cc2)c(=O)c2c3c(sc21)CCCC3 | inactive: 96%

SMILES | survival
O=C(/C=C/c1ccccc1)N1CCN(Cc2cc(=O)n3nc(-c4ccccc4F)sc3n2)CC1 | inactive: 102%
CC(=O)N1CCc2cc(CNC(=O)Cc3ccc(F)cc3)ccc21 | inactive: 69%
CCOc1ccccc1CNC(=O)C1CCN(C(=O)N2CC(CC)Oc3ccc(C)cc32)CC1 (stereo not given) | inactive: 87%
COc1cccc(CNC(=O)C(=O)NCC(c2ccco2)S(=O)(=O)c2cccs2)c1 (stereo not given) | inactive: 87%
O=C(Cn1c(SCCOc2ccccc2)nc2ccccc21)N1CCOCC1 | inactive: 86%
COc1ccc(N2CC(NC(=O)/C=C\c3ccccc3)CC2=O)cc1 (stereo not given) | inactive: 101%
Cc1cc(OCCn2cc(C(=O)c3cccs3)c3ccccc32)ccc1Cl | inactive: 119%
O=C(Nc1ccc2nc(SCC(=O)N3CCOCC3)sc2c1)c1cccc(Cl)c1 | inactive: 39%
Cc1c(C(=O)OCCOc2ccccc2)[nH]c2c1C(=O)CC(c1ccccc1)C2 (stereo not given) | inactive: 102%
COc1ccc(Cl)cc1N(C)C(=O)c1ccc2c(=O)n3c(nc2c1)CCCCC3 | inactive: 69%
COc1ccc(NC(=O)Cn2c(=O)n(CCC(=O)NCc3ccccc3OC)c(=O)c3ccccc32)cc1Cl | inactive: 101%
Cc1ccc(Cn2ccn(Cc3ccccc3F)c(=O)c2=O)cc1 | inactive: 113%
CSc1ccc(CCNC(=O)c2ccc(-c3nc(COc4ccccc4)c(C)o3)cc2)cc1 | inactive: 81%
Cc1cccc(N2CCN(CCCNc3ncnc4onc(-c5ccc(Cl)cc5)c34)CC2C)c1 (stereo not given) | inactive: 66%
COc1cccc(CNC(=O)CCc2c(C)nc3c(c(C)nn3-c3ccc(C)c(C)c3)c2C)c1 | inactive: 86%
Cc1nc2c(-c3ccccc3)c(C)nn2c(C)c1CCC(=O)N1CCN(c2ccc(F)cc2)CC1 | inactive: 76%
Cc1c(Cl)cccc1NC(=O)COCc1cc(-c2ccc3c(c2)OCO3)on1 | inactive: 81%
COc1ccc(CCNC(=O)CCn2c(=O)c3ccccc3n(Cc3cc(C)ccc3C)c2=O)cc1OC | inactive: 96%
Cc1ccc2nc(-c3ccc(Cl)c(NC(=O)COc4cccc(C)c4C)c3)oc2c1 | inactive: 69%
CCN1CCOC(=O)C1CC(=O)Nc1cc(C)ccc1OC (stereo not given) | inactive: 113%
Cc1cccc(NC(=O)c2ccc3snnc3c2)c1 | inactive: 105%
CCOC(=O)c1sc(NC(=O)/C=C/c2ccc(C(C)C)cc2)c(C(=O)OCC)c1C | inactive: 55%
CCCc1cc(=O)[nH]c2nnc(SC(C)CC)n12 (stereo not given) | inactive: 80%

SMILES | survival
CCN(CC)c1ccc(NC(=O)CCS(=O)(=O)c2cc3c(cc2Cl)NC(=O)CO3)c(C)c1 | inactive: 87%
O=c1cc(C(F)(F)F)nc2cc(-c3ccccc3)[nH]n12 | inactive: 104%
Cc1ccc2nc(N3CCN(c4cccc(C(F)(F)F)c4)CC3)c3nnnn3c2c1 | inactive: 78%
CCc1cccc(C)c1NS(=O)(=O)c1cc2[nH]c(=O)c(=O)[nH]c2cc1C | inactive: 77%
CCc1ccc(NCc2cc3cc4c(cc3n(CC(=O)Nc3cccc(OC)c3)c2=O)OCO4)cc1 | inactive: 78%
CC(C)COc1ccc(C(=O)NCC2(N3CCN(C)CC3)CCCCC2)cc1 | inactive: 88%
COCCNC(=O)Cn1nc(C)c2c(C)n(-c3ccc(C)cc3)nc2c1=O | inactive: 131%
CCc1ccc2ncc3c(-c4ccccc4)nn(-c4ccccc4)c3c2c1 | active: 7%
Cc1onc2c1C(=O)CC(C)(C)C2 | inactive: 103%
CCc1nnc(SCC(=O)Nc2ccccc2Cl)nc1CC | inactive: 73%
Cc1ccc(C)c(NC(=O)CC2NCCNC2=O)c1 (stereo not given) | inactive: 71%
COc1cccc(NC(=O)CSc2nnc3scc(-c4ccc(Cl)cc4)n23)c1 | inactive: 100%
COc1ccc(N(C(=O)c2ccc(OC)c(OC)c2)S(=O)(=O)c2ccc(Cl)cc2)cc1 | inactive: 88%
Cc1cc(C)n2nc(C(=O)N/N=C/c3ccncc3)nc2n1 | inactive: 85%
Cc1cc(NS(=O)(=O)c2ccc(NC(=O)c3ccccc3C)cc2)nc(C)n1 | inactive: 78%
N#Cc1ccccc1Cn1c(=O)n(CCCC(=O)NCc2ccc3c(c2)OCO3)c(=O)c2sccc21 | inactive: 126%
Cc1ccc(NC(=O)C2CCCN(c3nnc(-n4c(C)ccc4C)s3)C2)c(C)c1 (stereo not given) | inactive: 128%
Cc1ccc2[nH]c(=O)c(CNCCCN(C)C)cc2c1 | inactive: 99%
Cc1csc2nc(COC(=O)c3cccc(NC(=O)COc4ccc(Cl)cc4)c3)cc(=O)n12 | inactive: 78%
O=C(CCCCn1c(=O)c2ccccc2n(Cc2ccccc2Cl)c1=O)NCCc1ccccc1 | inactive: 132%
CCCC(C(=O)NCc1cccc(Cl)c1)N1Cc2ccccc2C1=O (stereo not given) | inactive: 66%
Cc1ccn2c(=O)cc(COc3ccc(NC(=O)COc4ccc(Cl)cc4)cc3)nc2c1 | inactive: 76%
CCCN(CCC)C(=O)Cn1c(=O)n(-c2cccc(OC)c2)c(=O)c2c3c(sc21)CCCC3 | inactive: 85%

SMILES | survival
CC(=O)c1nn(-c2ccc(OC(F)(F)F)cc2)nc1Nc1ccc(C)cc1 | inactive: 96%
Cc1cccc(/C=N/NC(=O)c2ccccn2)c1O | inactive: 18%
COc1ccccc1CNC(=O)CS(=O)Cc1nc(-c2ccc(OC)c(OC)c2)oc1C (stereo not given) | inactive: 124%
CCOC(=O)c1ccc(NC(=O)C2CCN(S(=O)(=O)c3ccc(C)cc3)CC2)cc1 | inactive: 70%
C=CCn1c(CCc2ccc(OC(C)C)cc2)n[nH]c1=S | inactive: 103%
Cc1ccc2nc(-c3ccc(NC(=O)COc4ccc(Cl)c(C)c4)cc3)sc2c1 | inactive: 69%
COc1ccc(Nc2cc(C)c3cc(NC(=O)Cc4c(F)cccc4Cl)ccc3n2)cc1 | inactive: 78%
CCN(Cc1ccccc1)C(=O)C1CCN(S(=O)(=O)c2c(C)noc2/C=C/c2ccc(C)cc2)CC1 | inactive: 113%
CCC1CN(C(=O)N2CCC(C(=O)O)CC2)c2cc(C)ccc2O1 (stereo not given) | inactive: 59%
Cc1ccc(CCNC(=O)c2ccc(CSCc3ccccc3C)o2)cc1 | active: 0%
CCOc1ccc(CNS(=O)(=O)c2ccc(-c3cc(C(F)(F)F)on3)s2)cc1 | inactive: 67%
COc1ccccc1CNC(=O)c1sc2nc3n(c(=O)c2c1C)CCC3 | inactive: 110%
Cc1ccc2nc3sc(C(N)=O)c(N)c3cc2c1 | inactive: 121%
CCn1c(SCc2ccccc2F)nc(=O)c2c(C(=O)OC)cc(C3CC3)nc21 | inactive: 64%
Fc1ccc(C(c2nnnn2C2CCCC2)N(Cc2ccccc2)Cc2ccco2)cc1 (stereo not given) | inactive: 110%
Cc1cccc(N2CCN(C(=O)c3ccc(NC(=O)c4nsc5ccccc45)cc3)CC2C)c1 (stereo not given) | inactive: 81%
O=C(NCc1ccncc1)C1CCN(S(=O)(=O)c2ccccc2)CC1 | inactive: 109%
CCOc1ccc(Cl)cc1C1CC(=O)Nc2cc(OC)c(OC)c(OC)c21 (stereo not given) | inactive: 87%
CCCNc1ccc(-c2nc(-c3ccncc3)no2)cc1[N+](=O)[O-] | inactive: 84%
CCOc1ccc(-c2cc(C(=O)NCc3ccc(C)cc3)c3ccccc3n2)cc1 | inactive: 79%
COc1ccc(S(=O)(=O)N2CCN(c3cccc(Cl)c3C)CC2)cc1OC | inactive: 106%
